{"source": "paper PMC12136788", "binders": {"B1": {"name": "chr9:106594412:106594413:-_ENSMUSG00000040661_ENSMUST00000046502|mus_hu|FALSE|FALSE (ssRNA)", "RNA": "GGGAGUUCUACAGUCCGACGAUCCUCACCCUGAUGUUCACACUAGGUGCCAUGAACCACCAAACUGACUUCCAUUUAAAGAAAGAUAAAUUCAUUUUUCAGUUUCCCUCUUAGUUCUUCCCUCCCUCCCCUCCCACCUUCACCCAACAGAGGAUUGAGCAUCA"}, "B2": {"name": "chr17:65346418:65346419:-_ENSG00000197170_ENST00000584008|hu_hu|FALSE|FALSE (ssRNA)", "RNA": "GGGAGUUCUACAGUCCGACGAUCUCGUAGAGUAUCAAUUAAUCGAAGUUUGAUAGGAAGGUCUGUGAUUUCCUCAACAUAAGUACAGCACUGUUGAACCAUUUUGGCAACAGCUUGUUUUAACUGACUCCGCCUUUUGGACAACAACAGAGGAUUGAGCAUCA"}, "B3": {"name": "chr1:186286705:186286706:-_ENSG00000047410_ENST00000367478|hu_mus|FALSE|FALSE (ssRNA)", "RNA": "GGGAGUUCUACAGUCCGACGAUCGAUGCUUGGACAGGCUCCUCUUCCUGCUGGCUAUCAAUUUCUAGGCCUGCCUCUGAACUAAUACCUUCAGACUCCGCCUCUACAAAUACUUCAUCUCCGUCGUCACCUGCUGCUGUUUCGCAACAGAGGAUUGAGCAUCA"}, "B4": {"name": "chr4:76721835:76721836:+_ENSG00000138768_ENST00000264904|hu_mus|hu_hu_hu_mus_True|88_88 (ssRNA)", "RNA": "GGGAGUUCUACAGUCCGACGAUCGUUUGGCUGGGGUUUCUGAGACGUCUGGAAUACUAACUCAUGUUUGCUAAUAAAUCCUAGUUUCUCUAUGAAAUUCUCUUUGCCAAUCCUCUUCUCUAUUAGUUGCUUUAGUUUCUCUUUCAACAGAGGAUUGAGCAUCA"}, "B5": {"name": "chr1:63494365:63494366:+_ENSMUSG00000025964_ENSMUST00000114107|mus_mus|motif|central (ssRNA)", "RNA": "GGGAGUUCUACAGUCCGACGAUCAGGCAGUGUGAUUUCUUUUUGCACUGCACUGCUGUAGCUGGUAUUUCUGCUGCUGCGGUUUUGUUGCAAUGUGUUGUCUUCAUCUGCCAGGACUCCCAGGGUUUUUUCUGCAGUUUCAUUCAACAGAGGAUUGAGCAUCA"}, "B6": {"name": "chr3:52290438:52290439:-_ENSG00000164091_ENST00000296490|hu_mus|FALSE|FALSE (ssRNA)", "RNA": "GGGAGUUCUACAGUCCGACGAUCACACGUAUGUAAUGUGCAUGUCUGCACAAAUGUAUUAAAGUGGACACACACAGUGUUCAAAUACAAACAGAUCAAGGGUCAUAUAUAAAAAGGCUAAAUAUAACAUAUAACACAGGCCUACAACAGAGGAUUGAGCAUCA"}, "B7": {"name": "chr16:94690093:94690094:+_ENSMUSG00000040785_ENSMUST00000117648|mus_hu|mus_mus_mus_hu_True|78_98 (ssRNA)", "RNA": "GGGAGUUCUACAGUCCGACGAUCGGGCUGGGAUGACAGCAGACAGCCCUCGAUUCCGGUAAAAAAAAGUCUUAGUCGAUACUAAUUAAAAAGUGUUAAUGAUUUUUGAAAAUCAGAUUACAUCUAUAAAAGAUGAAAAGCAAACAACAGAGGAUUGAGCAUCA"}, "B8": {"name": "chr7:157177620:157177621:+_ENSG00000105993_ENST00000429029|hu_hu|FALSE|FALSE (ssRNA)", "RNA": "GGGAGUUCUACAGUCCGACGAUCGCCCAUGCCACUACCACCAAAUGACGUGGAAGAGAAUGAAGUGAGGCCCCCGUGACCUAGUGACCCAAAUGAAGUAAAUCCUGUAUCAAAAGAAGAAAAUCCACUUCCAAAAGACGGAAACAACAGAGGAUUGAGCAUCA"}, "B9": {"name": "89614512_89614632_732_3pUTR_ENSG00000111880_ENST00000369485|human|control|control (ssRNA)", "RNA": "GGGAGUUCUACAGUCCGACGAUCUCAUCUUCGUCUUCAUCAUCCUCAAAACACCAAUCUGGCAAUAGAGGUGGGGGUGGUGCUUCCUCUAUGUCACCAUACCGACGAAAAAGUUCCUUCAAAUAAUCACCCUUGUAGAUUCCUCAACAGAGGAUUGAGCAUCA"}, "B10": {"name": "chr14:89307221:89307222:+_ENSG00000165533_ENST00000346301|hu_mus|hu_hu_hu_mus_False|38_68 (ssRNA)", "RNA": "GGGAGUUCUACAGUCCGACGAUCUCCUGUUUGGUUAGUGCCAGGGAGCUUCAAAGAUGUGCCAGGGCGUGGAACUUGAGCAAUAGCAUUUUCAUCCAGCAUCAUUUCAGCAAUUCCUUCCUGGUCCACAUCAAUUUCAUCUAUCAACAGAGGAUUGAGCAUCA"}, "B11": {"name": "chr1:163112212:163112213:-_ENSG00000143248_ENST00000313961|hu_hu|hu_hu_hu_mus_False|1_88 (ssRNA)", "RNA": "GGGAGUUCUACAGUCCGACGAUCUUUUAUUAUCAGUAAGAGUGAGUCACAUAGUACGCAAAGUAUUGGAUACAAUAAUCAGGAAACAAACACUAUUGGUCCAGAAUUUAAAACUUUAUGAGCGAAGUGCUGGCACAGGAUUUACAACAGAGGAUUGAGCAUCA"}, "B12": {"name": "chr5:137354059:137354060:-_ENSG00000031003_ENST00000033079|hu_mus|motif|central (ssRNA)", "RNA": "GGGAGUUCUACAGUCCGACGAUCGUGAAUAUGCAAGCUGCCAGGUAUGACGGGCUCAGGGAGCUCCUGCAGGAAAAACCGGAGGAGACUAAUGGCUGAGGGGACGUCCGCUUCCUUAACCAAGUCCACCUCUUCUCCACUGUCCAACAGAGGAUUGAGCAUCA"}, "B13": {"name": "chr14:76904430:76904431:+_ENSMUSG00000022010_ENSMUST00000022587|mus_mus|motif|central (ssRNA)", "RNA": "GGGAGUUCUACAGUCCGACGAUCCCGUGGAAAAAAAAGAGAGAGGGCGGGAGGGAGCAAGCUCCAGCAGCCUGGUUCAAACGGGAUAAAACCGCCUAGCUGUCUGCAGCUCAGGGCGUGAGAACGGUGGUGCUGGCUCGAGUGCAACAGAGGAUUGAGCAUCA"}, "B14": {"name": "chr17:57759655:57759656:+_ENSG00000141367_ENST00000269122|hu_hu|FALSE|FALSE (ssRNA)", "RNA": "GGGAGUUCUACAGUCCGACGAUCUCGAGCCUUCUUACGGGCCAUCUGCAAGUACUUCACCAGUUCUUCCCAGUUUCCACUAGUAUUGGCAGCCUGAACAACUUCCAUGUAGGAGGAAGGAUCAUCUGCUUUGAUAUAAGAAUCCAACAGAGGAUUGAGCAUCA"}, "B15": {"name": "chrX:69798090:69798091:-_ENSMUSG00000031343_ENSMUST00000055966|mus_mus|mus_mus_mus_hu_False|48_48 (ssRNA)", "RNA": "GGGAGUUCUACAGUCCGACGAUCAAGUCCCCGGGUUCUUGUCGUCUUGAUUCCCCUUGACCAGUGGUUCCAGGGAGAAUAUUAAUCAGGAGAAGAAUCCCAAGGCUGGUCAUGUAACAGUGACUUGUUUGUGUGAUUAUCAUCCAACAGAGGAUUGAGCAUCA"}, "B16": {"name": "chrX:102931600:102931601:-_ENSG00000123562_ENST00000441076|hu_mus|FALSE|FALSE (ssRNA)", "RNA": "GGGAGUUCUACAGUCCGACGAUCGUCCUCCACCAGCCACGGUUUUAAUUCUUCAGGGAUCUUCACCUUCACCUCCAUCCUACUCUUGAAUGCCUCCUCGCUCUCCACAGUGGGGUCAGCCCGUGCCCUUUUCUUCCGAGGGGGCAACAGAGGAUUGAGCAUCA"}, "B17": {"name": "chr1:229631753:229631754:-_ENSG00000069248_ENST00000261396|hu_hu|motif|central (ssRNA)", "RNA": "GGGAGUUCUACAGUCCGACGAUCAUGCUUUUCUGAAGAAUCAUCUAAUUCCCAUUUACUGAUGUUUGAACUCGUCAGGCGGUAAAAGCUUGAUCUCUCUCUAUCCCAGAGAACACUUGAAAGUGUGAGAUCACUACUAGGAGACAACAGAGGAUUGAGCAUCA"}, "B18": {"name": "chr8:117878989:117878990:-_ENSG00000164754_ENST00000297338|hu_hu|hu_hu_hu_mus_True|48_48 (ssRNA)", "RNA": "GGGAGUUCUACAGUCCGACGAUCCCAGAGGCCCUCGUUUACUGAGGACAAAAUGUGCGUAGAACAUUUUUCUUAUUUGCUAUGAAAACAGAAGAAACCUGGAUCUCGGCGGGGAGCCGGGAGGGGUGGGUGGCCCGGGGAGGGCAACAGAGGAUUGAGCAUCA"}, "B19": {"name": "chr7:56126341:56126342:+_ENSG00000146731_ENST00000540286|hu_mus|hu_hu_hu_mus_True|18_78 (ssRNA)", "RNA": "GGGAGUUCUACAGUCCGACGAUCCAUGUUUCUCCUCUUGGCUCUGCGCAGAGCUACUAUGCCUUCUUUCGCAAGGGCAUCUAAGGAAAAGGGGUCAAUCCCCUUUUGAUUAAUAACAACAAAUCCUUUAUCUGAGUCACCACACAACAGAGGAUUGAGCAUCA"}, "B20": {"name": "chr10:28872372:28872373:+_ENSG00000095787_ENST00000354911|hu_hu|motif|central (ssRNA)", "RNA": "GGGAGUUCUACAGUCCGACGAUCUGCAUCUGAAGUUUUGCUUGGGUUAUUGCUUGGAUUAGAAGAAUGUGAAUUUGAACGGUGAAGAGCACUGUGGUUGUGUGAAUUUUCUUGUGGAGAGUAACUGGUCCCACCAUCCCUCUCCAACAGAGGAUUGAGCAUCA"}, "B21": {"name": "chr1:37488339:37488340:+_ENSMUSG00000026111_ENSMUST00000027285|mus_mus|motif|central (ssRNA)", "RNA": "GGGAGUUCUACAGUCCGACGAUCGGCAGGGUCAUCUCUGGCCCACUGGUCCUUUGUUUGCUUCCGGUAGUGAAAGUUUCGGUAAACCCUCUGAGGAGAGGUAAACAGGUAGAGCAUCUGCCAUGCAGCAAACUCAAAGUCCAUCAACAGAGGAUUGAGCAUCA"}, "B22": {"name": "chr3:31621302:31621303:+_ENSG00000163527_ENST00000295770|hu_mus|FALSE|FALSE (ssRNA)", "RNA": "GGGAGUUCUACAGUCCGACGAUCUAAAAUCCAAUGAAUAAGGCCAGCUGUUAUCAUCAACCCUGGGUAAACGGUGCCACCCACUAUUCUUCCCAGUGGGUACCAUGCUCUUUCAUCAAACCAAUUUAGAAACUCAUAGAAUCCCAACAGAGGAUUGAGCAUCA"}}, "note": "The list shows a part of the results."}
{"molecular_target": "T1, UNK ZnF1-3 (human, UniProt Q9C0B0 31-174)", "T1 sequence": "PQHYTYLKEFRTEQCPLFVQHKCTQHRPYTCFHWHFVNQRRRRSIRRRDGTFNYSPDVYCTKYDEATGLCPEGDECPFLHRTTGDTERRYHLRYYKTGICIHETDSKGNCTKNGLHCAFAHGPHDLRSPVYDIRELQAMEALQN", "experiment": "nsRBNS (natural sequence RNA bind-n-seq); RBNS binding buffer (assumed for nsRBNS): 25 mM Tris pH 7.5, 150 mM KCl, 3 mM MgCl2, 0.01% Triton X-100, 500 ug/ml BSA, 20 U/ml SUPERase-In, 4 C; UNK is unkempt and MSI1 is Musashi-1; names of the RNAs are library labels; protein concentration not given here; high values mean tight binding", "units": {"binding signal": "enrichment R"}}
{"binder": "B1", "binding signal": 1.1}
{"binder": "B2", "binding signal": 0.996}
{"binder": "B3", "binding signal": 0.914}
{"binder": "B4", "binding signal": 0.371}
{"binder": "B5", "binding signal": 0.155}
{"binder": "B6", "binding signal": 0.746}
{"binder": "B7", "binding signal": 1.91}
{"binder": "B8", "binding signal": 1.56}
{"binder": "B9", "binding signal": 1.01}
{"binder": "B10", "binding signal": 0.962}
{"binder": "B11", "binding signal": 1.44}
{"binder": "B12", "binding signal": 0.8}
{"binder": "B13", "binding signal": 1.75}
{"binder": "B14", "binding signal": 0.83}
{"binder": "B15", "binding signal": 0.537}
{"binder": "B16", "binding signal": 1.09}
{"binder": "B17", "binding signal": 0.755}
{"binder": "B18", "binding signal": 1.92}
{"binder": "B19", "binding signal": 0.737}
{"binder": "B20", "binding signal": 1.38}
{"binder": "B21", "binding signal": 1.24}
{"binder": "B22", "binding signal": 0.763}
